Results published in article PMC9600267, “The Antibacterial Type VII Secretion System of Bacillus subtilis: Structure and Interactions of the Pseudokinase YukC/EssB” (mBio, 2022).
Results are given in words; binding and its absence hold for the method and conditions named. Some entries that bind do so weakly or less than the wild type. Sequences can lack the tags named with a protein.

Target: T1, YueB (full length), bacterial two-hybrid fusion (Bacillus subtilis 168) (UniProt O32101)
T1 sequence: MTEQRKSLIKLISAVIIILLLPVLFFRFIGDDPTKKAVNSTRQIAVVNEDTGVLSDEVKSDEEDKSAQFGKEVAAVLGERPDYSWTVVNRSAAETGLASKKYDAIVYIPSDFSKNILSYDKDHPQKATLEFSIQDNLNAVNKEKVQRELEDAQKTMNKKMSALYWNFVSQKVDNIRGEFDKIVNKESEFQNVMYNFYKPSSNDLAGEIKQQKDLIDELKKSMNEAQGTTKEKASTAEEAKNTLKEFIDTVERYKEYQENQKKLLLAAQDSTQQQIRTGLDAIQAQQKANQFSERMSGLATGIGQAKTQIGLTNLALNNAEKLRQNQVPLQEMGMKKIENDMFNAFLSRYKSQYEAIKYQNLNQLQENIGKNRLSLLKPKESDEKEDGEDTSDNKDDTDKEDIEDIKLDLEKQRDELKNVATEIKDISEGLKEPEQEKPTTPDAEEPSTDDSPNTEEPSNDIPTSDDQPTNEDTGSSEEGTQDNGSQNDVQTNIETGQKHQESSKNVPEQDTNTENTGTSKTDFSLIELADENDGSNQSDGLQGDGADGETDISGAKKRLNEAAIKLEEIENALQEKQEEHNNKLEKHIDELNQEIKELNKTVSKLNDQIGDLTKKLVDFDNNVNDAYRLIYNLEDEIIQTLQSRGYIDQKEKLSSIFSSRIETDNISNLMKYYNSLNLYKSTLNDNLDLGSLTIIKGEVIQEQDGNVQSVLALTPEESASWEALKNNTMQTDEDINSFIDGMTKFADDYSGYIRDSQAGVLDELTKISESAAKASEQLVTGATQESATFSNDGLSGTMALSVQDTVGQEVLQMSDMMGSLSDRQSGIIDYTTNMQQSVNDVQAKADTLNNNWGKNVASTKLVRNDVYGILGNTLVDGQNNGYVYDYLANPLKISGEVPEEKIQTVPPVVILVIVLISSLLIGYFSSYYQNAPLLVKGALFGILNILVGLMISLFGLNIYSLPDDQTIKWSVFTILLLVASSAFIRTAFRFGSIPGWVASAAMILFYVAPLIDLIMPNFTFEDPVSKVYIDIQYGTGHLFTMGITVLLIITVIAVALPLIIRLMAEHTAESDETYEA
Assay: two-hybrid; bacterial two-hybrid (BACTH) in E. coli BTH101; T25 (pKT25/pKNT25) and T18 (pUT18/pUT18C) fusions; spots on LB with X-Gal and IPTG, 25°C, imaged after 48 h

- binding: binds
B1: YueB (full length), bacterial two-hybrid fusion (protein, UniProt O32101 1-1076)
chain: MTEQRKSLIKLISAVIIILLLPVLFFRFIGDDPTKKAVNSTRQIAVVNEDTGVLSDEVKSDEEDKSAQFGKEVAAVLGERPDYSWTVVNRSAAETGLASKKYDAIVYIPSDFSKNILSYDKDHPQKATLEFSIQDNLNAVNKEKVQRELEDAQKTMNKKMSALYWNFVSQKVDNIRGEFDKIVNKESEFQNVMYNFYKPSSNDLAGEIKQQKDLIDELKKSMNEAQGTTKEKASTAEEAKNTLKEFIDTVERYKEYQENQKKLLLAAQDSTQQQIRTGLDAIQAQQKANQFSERMSGLATGIGQAKTQIGLTNLALNNAEKLRQNQVPLQEMGMKKIENDMFNAFLSRYKSQYEAIKYQNLNQLQENIGKNRLSLLKPKESDEKEDGEDTSDNKDDTDKEDIEDIKLDLEKQRDELKNVATEIKDISEGLKEPEQEKPTTPDAEEPSTDDSPNTEEPSNDIPTSDDQPTNEDTGSSEEGTQDNGSQNDVQTNIETGQKHQESSKNVPEQDTNTENTGTSKTDFSLIELADENDGSNQSDGLQGDGADGETDISGAKKRLNEAAIKLEEIENALQEKQEEHNNKLEKHIDELNQEIKELNKTVSKLNDQIGDLTKKLVDFDNNVNDAYRLIYNLEDEIIQTLQSRGYIDQKEKLSSIFSSRIETDNISNLMKYYNSLNLYKSTLNDNLDLGSLTIIKGEVIQEQDGNVQSVLALTPEESASWEALKNNTMQTDEDINSFIDGMTKFADDYSGYIRDSQAGVLDELTKISESAAKASEQLVTGATQESATFSNDGLSGTMALSVQDTVGQEVLQMSDMMGSLSDRQSGIIDYTTNMQQSVNDVQAKADTLNNNWGKNVASTKLVRNDVYGILGNTLVDGQNNGYVYDYLANPLKISGEVPEEKIQTVPPVVILVIVLISSLLIGYFSSYYQNAPLLVKGALFGILNILVGLMISLFGLNIYSLPDDQTIKWSVFTILLLVASSAFIRTAFRFGSIPGWVASAAMILFYVAPLIDLIMPNFTFEDPVSKVYIDIQYGTGHLFTMGITVLLIITVIAVALPLIIRLMAEHTAESDETYEA
